{"source": "patent US20250312473A1", "about": "“B7H3 ANTIBODY DRUG CONJUGATES” (BEONE MEDICINES I GMBH, priority 2022, published 2025)", "biological_target": "T1, ECD of human 4Ig-B7H3 (Homo sapiens, UniProt Q5ZPR3)", "T1 construct": "ECD of human 4Ig-B7H3 (Sinobiological, Cat: 11188-H08H); purchased Sinobiological 11188-H08H", "T1 sequence (Q5ZPR3 29-466 limits assumed)": "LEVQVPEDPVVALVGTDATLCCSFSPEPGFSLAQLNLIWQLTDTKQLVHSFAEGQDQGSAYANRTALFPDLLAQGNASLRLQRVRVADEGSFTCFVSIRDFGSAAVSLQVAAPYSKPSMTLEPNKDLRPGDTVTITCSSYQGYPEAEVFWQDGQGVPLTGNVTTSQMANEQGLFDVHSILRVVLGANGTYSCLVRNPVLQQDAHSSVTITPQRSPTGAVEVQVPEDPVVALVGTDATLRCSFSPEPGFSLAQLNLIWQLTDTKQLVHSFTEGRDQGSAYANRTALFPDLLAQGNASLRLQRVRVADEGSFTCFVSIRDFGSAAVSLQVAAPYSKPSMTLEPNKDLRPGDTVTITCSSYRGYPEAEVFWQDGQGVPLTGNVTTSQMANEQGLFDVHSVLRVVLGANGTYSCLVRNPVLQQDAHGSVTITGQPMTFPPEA", "assay": "SPR affinity determination", "assay_type": "binding", "settings": "Test 1", "source_text": "For affinity determination, antibodies were captured by anti-human Fc surface, and used in an affinity assay based on surface plasmon resonance (SPR) technology. The results of SPR-determined binding profiles of humanized antibodies to ECD of human 4Ig-B7H3 (Sinobiological, Cat: 11188-H08H) were summarized in Table 20."}
{"molecule": "Chimeric BGA-3295: \"Anti-Human B7H3 mAb BGA-3295\", parent antibody with murine variable regions that was humanized (antibody, V domains shown) VH: QIQVVQSGPELVKPGSLVKISCKASGYTFTNYDINWVKQRPGQGLEWIGWIYPGDGSAYYNEKFKGKATLTADKSSSTAYMQLSSLTSENSAVYFCARWGYGGVPFAYWGQGTLVTVSA VL: DIVMTQSPSSLAMSVGQKVTMSCKSSQSLLNDINQKNYLAWYQQKPGQSPKLLVYFASTGVSGVPDRFIGSGSGTDFTLTVSSVQAEDLADYFCQQYYSFPWTFGGGTKLEIK", "values": [{"measurement": "koff", "result": 0.000284, "unit": "s⁻¹"}, {"measurement": "kon", "result": 720000, "unit": "M⁻¹ s⁻¹"}]}
